# Assay results: the supplement of paper PMC10338343
# ± gives the standard deviation. The list shows a part of the results, in another mix than the full data.
# Test system: MIWI (PIWIL1) piRISC loaded with L1MC piRNA (30 nt)
# Assay: pre-steady-state target cleavage rate (min^-1); MIWI and MILI are mouse PIWI proteins and EfPiwi is from a freshwater sponge; tags in brackets are library labels; higher = faster piRNA-guided slicing of the target
# Settings: guide: L1MC piRNA 5'p-UAACUAAAUACUAUGCAAGCUGUAGGUCCU
# How it was run: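 With or without 500 nM GTSF1 partner protein, 1 nM active affinity-purified piRISC carrying one synthetic guide was mixed with 0.1 nM transcribed, DNA-blocked target RNA library in HEPES–potassium acetate buffer at 33 °C for 0–8 or 0–960 min. Uncleaved targets were sequenced and normalised to depth and to weakly complementary targets, three trials were pooled, and k3 was capped at 0.0001 min^-1. The pre-steady-state cleavage rate came from a burst-and-steady-state fit.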
# [1] = auxiliary factor: 500 nM mouse GTSF1
# [2] = auxiliary factor: none (no GTSF1)
Sequence,pre-steady-state target cleavage rate [1],pre-steady-state target cleavage rate [2]
AGGACCUACACCUUGCAUAGUAUAUAGUUA,0.744 ± 0.062,0.0313 ± 0.0065
UCCACCUACAGCUAGCAUAGUAUUUAGAUA,0.33 ± 0.049,0.00554 ± 0.0024
UCCUGCUACAGCUUGCAUACUAUUUUGUUA,0.24 ± 0.026,0.0165 ± 0.0024
UCGACCUACAGCUUGCAUAGUAUUUAGGUA,0.404 ± 0.064,0.0199 ± 0.0067
AGGACCUACAGCUAGCAUAGUAUUUUGUUA,0.893 ± 0.073,0.0171 ± 0.0034
UCCUCCUAGACCUUGCAUAGUAUUUAGUUA,0.851 ± 0.042,0.0236 ± 0.0052
UCCUCCAUACAGCUUGCAUAGUAUUUAGUUA,0.364 ± 0.019,0.0335 ± 0.0051
UCCUGGUACAGCUUGCAAAGUAUUUAGUUA,0.711 ± 0.046,0.0405 ± 0.0074
UCGACCUACAGCUUGGCAUAGUAUUUAGUUA,1.24 ± 0.2,0.0236 ± 0.0066
UCCUGCUACAGCUUGCAUAGUAUUUAGUGUA,0.375 ± 0.045,0.0176 ± 0.0042
UCCUGGAUGAGCUUGCAUUGUAUUAAGUUA,0.107 ± 0.015,0.00884 ± 0.0036
UCCUGCUACAGGUUGGAUAGUAUUUAGUUA,0.916 ± 0.092,0.0193 ± 0.0033
UCCUCCUACAGCUUGCAUAGUAUAUUAGUUA,0.98 ± 0.049,0.00817 ± 0.0014
UCCACCUACAGCUUGGUUAGUAUUUAGUUA,1.13 ± 0.053,0.00841 ± 0.0021
UGGUCCUACAGCUUGCAUAGUAUUUACAAA,0.209 ± 0.03,0.00562 ± 0.0026
UCCUGGUACAGCUUGCAUAGUAUUUAGUUU [g2:g24:cont:t1U],0.971 ± 0.038,0.064 ± 0.0098
UCCUCCUAGAGCUUGCAUAGUAUUUACUUA,0.379 ± 0.056,0.0255 ± 0.0052
UCCAACCUACAGCUUGCAUAGUAUUUAGUUA,1.05 ± 0.037,0.055 ± 0.0073
UCCACCUACGAGCUUGCAUAGUAUUUAGUUA,0.622 ± 0.073,0.0286 ± 0.0055
UCCUGGAUGUGCUUGCAUAGUAUUUAGCUUA,0.18 ± 0.024,0.0247 ± 0.0067

Sequence,pre-steady-state target cleavage rate [1],pre-steady-state target cleavage rate [2]
UGGACCUACAGCUUGCUUUGUAUUUAGUUA,0.222 ± 0.026,0.00649 ± 0.0017
UCCUGGUACAGCUUGCAUAGUUUUUAGAAA,0.0899 ± 0.033,0.00569 ± 0.0025
UGGUCCUACAGGUUGCAUAGUAUUUAGUUA,0.758 ± 0.055,0.0377 ± 0.0066
UGGACUACAGCUUGCAUAGUAUUUAGUUA,1.34 ± 0.053,0.0823 ± 0.013
AGGACCUACAGGUUGCAUAGUAUUUAGAAA,0.457 ± 0.046,0.0106 ± 0.0034
UGGACCUACAGCUUGCAUAGUAUUUGUUA,0.341 ± 0.038,0.00385 ± 0.0021
UGGACCUACAGCUUGCUUAGUAUUUAGUUA,1.56 ± 0.094,0.0426 ± 0.011
UCGACCUACAGCUUGCAUACUAUUUACAAA,0.211 ± 0.035,0.00398 ± 0.0023
UCCUGGAUCAGCUUGCAUAGUAUUUAAUUA,0.178 ± 0.02,0.018 ± 0.0062
AGGACCUACUCCUUGCAUAGUAUUUACAAA,0.211 ± 0.032,0.00527 ± 0.0015
AGGACCUACACGAUGCAUAGUAUUUAGUUA,0.966 ± 0.06,0.00704 ± 0.0025
UCCUGCUACAGCUUGGAUUGUAUUUAGUUA,0.216 ± 0.022,0.00769 ± 0.0022
AGGACCUAGAGCUUGGAUAGUAUUUAGUUA,1.15 ± 0.062,0.0524 ± 0.0094
UCCUGCUACAGCUAGCAUAGUAUUUUGUUA,0.957 ± 0.081,0.0078 ± 0.0027
UCCUGGAUGAGCUUGCAUAGUAGUUUAGUUA,0.102 ± 0.015,0.00894 ± 0.0031
AGGACCUACAGCUUGCAUAGUAUUUAGCUA,0.352 ± 0.11,0.00741 ± 0.0041
UCCUCCUACACGCUUGCAUAGUAUUUAGUUA,0.934 ± 0.037,0.0382 ± 0.0074
AGGACCUACAGCUUGCAUAGUUUUUAGUUA,0.433 ± 0.028,0.0499 ± 0.011
UCCUGGAUCAGCUAGCAUAGUAUUUAGUAA,0.657 ± 0.05,0.00636 ± 0.0026
UCCACCUACUGCUUGCAUACUAUUUAGUUA,0.297 ± 0.026,0.0231 ± 0.0039

Sequence,pre-steady-state target cleavage rate [1],pre-steady-state target cleavage rate [2]
UCCUGGAACAGGUUGCAUAGUAUUUACUUA,0.164 ± 0.023,0.0109 ± 0.0022
UGGACCUACAGGUUGCAUAGUAUUUAGAUA,0.303 ± 0.036,0.0236 ± 0.0039
AGGACCUACACCUUGCAUACUAUUUAGUUA,0.302 ± 0.029,0.0291 ± 0.0065
UCCUGGAUGAGCUUAGCAUAGUAUUUAGUUA,0.55 ± 0.033,0.0102 ± 0.0031
UCCUCGUACAGCUUGCAUACUAUUUAGUUA,0.365 ± 0.014,0.0348 ± 0.0084
UCCUGGAACAGCUUGCAUACUUUUUAGUUA,0.0169 ± 0.0068,0.00432 ± 0.0025
UCCACCUACAGCUAGCAUAGUUUUUAGUUA,0.274 ± 0.021,0.0134 ± 0.0026
UCCUGGAACAGCUUGGAUUGUAUUUAGUUA,0.113 ± 0.011,0.00963 ± 0.003
ACGACCUACAGCUUCCAUAGUAUUUAGUUA,0.258 ± 0.062,0.00673 ± 0.003
AGGACCAUCAGCUUGCAUAGUAUUUACAAA,0.395 ± 0.044,0.00807 ± 0.0029
UCCUGCUACAGCAUGGAUAGUAUUUAGUUA,1.13 ± 0.15,0.015 ± 0.0025
UGGACCUACAGGUUGCAUAGUUUUUAGUUA,0.233 ± 0.017,0.0243 ± 0.0052
UCCUGGAUCAGCUUGGAUAGUAUUUAGAUA,0.149 ± 0.025,0.015 ± 0.0044
UCCUGCUUGUGCUUGCAUAGUAUUUAGUUA,0.417 ± 0.034,0.0382 ± 0.0071
UCCUGGUAGUGCUUGCAUAGUAUUUAGUAA,0.368 ± 0.042,0.0162 ± 0.0047
UCCUGGUACUGCUUGCAUAGUAUUUACUUA,0.038 ± 0.017,0.00656 ± 0.0029
UCCUGGAUGUCCCUGCAUAGUAUUUAGUUA,0.0135 ± 0.0046,0.00302 ± 0.0021
UCCUGGUACAGCUUGCAUAGUAUUAUAGUUA,0.698 ± 0.085,0.0149 ± 0.0038
UGGUCCUAGAGCUUGCAUAGUAUUUAGUUA,0.839 ± 0.086,0.0496 ± 0.0073
UCCACCUACAGCUUGCAUAGUAUGUUAGUUA,0.315 ± 0.045,0.0117 ± 0.0026
